Experimental data from PubChem BioAssay AID894 (National Center for Advancing Translational Sciences (NCATS), 2007).
Hit rate of the full screen: of about 150,000 compounds, about 6,500 (4.3%) were called active. The shares of active, inactive and inconclusive entries below differ from those in the screen. Calls come from the whole dose curve; as a rule, active = well fitted inhibition curve with a large enough effect (not every such curve was filed as active); inconclusive = small, poorly fitted or top-dose-only effect, or another doubt; inactive = no such curve, though single readings can be large or run the other way. No potency is given beside an inconclusive call; the fits are too rough.

biological target: 15-hydroxyprostaglandin dehydrogenase [NAD(+)] (Homo sapiens) (UniProt P15428); assay: qHTS Assay for Inhibitors of HPGD (15-Hydroxyprostaglandin Dehydrogenase); conditions: purified HPGD, NADH fluorescence kinetic, PGE2 substrate; activity change, negative = inhibition: active compounds read low
UniProt P15428, sequence (P15428 whole entry, looked up): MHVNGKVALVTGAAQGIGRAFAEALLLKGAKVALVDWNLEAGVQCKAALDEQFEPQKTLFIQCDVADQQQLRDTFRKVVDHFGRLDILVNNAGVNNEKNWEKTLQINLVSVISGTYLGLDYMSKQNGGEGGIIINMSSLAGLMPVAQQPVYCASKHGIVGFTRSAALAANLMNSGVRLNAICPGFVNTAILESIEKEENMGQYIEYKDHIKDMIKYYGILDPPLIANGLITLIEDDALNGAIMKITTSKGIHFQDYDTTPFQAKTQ
How it was run: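 20 nM HPGD preincubated 15 min at room temperature with compound in 50 mM Tris-HCl pH 8, 0.01% Tween 20. Started with 1 mM NAD+ and 30 uM prostaglandin E2; NADH fluorescence (360/450 nm) read 5 times over 30-s intervals, last minus first.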
% is set by controls: 0 for no effect and ±100 for the full control effect; potency is the fitted concentration of half-maximal effect; tags give direction and shape of the fitted curve.

SMILES	Potency	activity change, negative = inhibition
COc1ccc(C(=O)N(CN2CCCC2=O)c2nccs2)cc1OC	inconclusive [inhibitor, partial curve]	–
O=C1NCC(c2ccccc2)C1C(=O)N/N=C\c1ccc(-c2ccc(Cl)c(Cl)c2)o1 (stereo unspecified)	inconclusive [inhibitor, partial curve]	–
Cc1cc(C)n(S(=O)(=O)c2ccc(C(C)(C)C)cc2)n1	active: 20 µM	–
O=c1c2c(nc3c(-c4ccccc4)c[nH]n13)CCC2	inconclusive [inhibitor, partial curve]	–
CCC1CCCCN1C(=O)CSc1nnc(-c2ccc3c(c2)OCCO3)o1 (stereo unspecified)	inconclusive [inhibitor, single point]	–
O=C(CCCOc1ccc(Cl)cc1Cl)NCC1CCCO1 (stereo unspecified)	active: 11.2 µM	–
CCOC(=O)c1cc(C)[nH]c(=S)c1C#N	–	inactive: -13.6%
O=C(CSc1ncn[nH]1)c1cccc([N+](=O)[O-])c1	inconclusive [inhibitor, single point]	–
Cc1ccc(CSc2ccc(-c3ccc4c(c3)OCO4)nn2)cc1	inconclusive [inhibitor, partial curve]	–
CC(C)OC(=O)c1c(NC(=O)c2ccco2)sc2c1CCCCC2	inconclusive [inhibitor, partial curve]	–
CCOC(=O)c1c(-c2ccc(OC)cc2)csc1NC(=O)CCN1C(=O)c2ccccc2C1=O	active: 28.2 µM	–
CCOC(=O)c1c(-c2ccccc2)csc1NC(=O)c1ccc(S(=O)(=O)N2CC(C)OC(C)C2)cc1 (stereo unspecified)	inconclusive [inhibitor, partial curve]	–
Cc1nn(-c2ccccc2)c2sc(-c3n[nH]c(=S)o3)cc12	inconclusive [inhibitor, partial curve]	–
COC(=O)c1cc2nc(-c3ccccc3)cc(C)n2n1	inconclusive [inhibitor, single point]	–
CN(C)c1cccc(NC2=CC(=[N+]3CCOCC3)CC(C)(C)C2)c1	inconclusive [inhibitor, partial curve]	–
CCN(CC)c1ccc(/C=C2\C(=O)c3ccc(C(=O)O)cc3C2=O)cc1	active: 2.82 µM	–
O=C(C1CCCCC1)N1CCCC(c2nc3c(nnn3Cc3ccccc3)c(=O)[nH]2)C1 (stereo unspecified)	active: 14.1 µM	–
CC(C)Cc1cc(C(=O)Nc2sc3c(c2C#N)CCC3)no1	inconclusive [inhibitor, partial curve]	–
Cc1cccc(-n2ncc3c(NCCCO)ncnc32)c1	inconclusive [inhibitor, partial curve]	–
CCOC(=O)c1c(-c2ccccc2)csc1NC(=O)c1nn(CC)cc1Br	inconclusive [inhibitor, partial curve]	–
CC(OCCN1CCCC1)(c1ccc(F)cc1)c1ccc(F)cc1	–	inactive: 2.52%
CC(O)CNCc1ccc(-c2ccccc2)cc1 (stereo unspecified)	–	inactive: -6.46%
Cc1[nH]c2ccc(-c3n[nH]c(=S)n3-c3ccccc3)cc2c1C	inconclusive [inhibitor, partial curve]	–
COc1ccc(/C=C(/CC(=O)Nc2ccc(C)cc2)c2nc3ccccc3s2)cc1	inconclusive [inhibitor, partial curve]	–

SMILES	Potency	activity change, negative = inhibition
CC(=O)Nc1nnc(-c2ccccn2)o1	inconclusive [inhibitor, partial curve]	–
N#CCCn1c(=O)c(-c2cc(F)cc(F)c2)nc2cnc(Oc3cccc(Cl)c3)nc21	inconclusive [inhibitor, single point]	–
COc1ccc(C2C3=C(CCCC3=O)Nc3nc(SCc4ccccc4)nn32)cc1OC (stereo unspecified)	–	inactive: -16.1%
O=C(COc1ccccc1O)Nc1ccccc1Cl	active: 17.8 µM	–
C=CCn1c(NC(=O)CC)c(C(=O)OCC)sc1=S	active: 20 µM	–
CCOC(=O)CN1C(=O)S/C(=C/c2ccc(OC)c([N+](=O)[O-])c2)C1=O	active: 15.8 µM	–
O=C(N/N=C\c1ccc([N+](=O)[O-])s1)c1cncc(Br)c1	–	inactive: -4.05%
Cn1c(=O)c2c(nc(N/N=C/c3ccc(OC(=O)c4ccco4)cc3)n2Cc2ccccc2)n(C)c1=O	inconclusive [inhibitor, partial curve]	–
COC(=O)c1sccc1NC(=O)c1sccc1C	inconclusive [inhibitor, partial curve]	–
O=c1[nH]n(-c2cccc3cccnc23)c(=O)c2ccccc12	active: 25.1 µM	–
Cc1ccc(O)c(C2=NNC(O)(C(F)(F)F)C2)c1 (stereo unspecified)	active: 25.1 µM	–
O=C1CCCN1CC(O)CS(=O)(=O)c1ccccc1 (stereo unspecified)	–	inactive: -6.27%
O=C(COc1ccc(Cl)cc1)Nc1ccc2oc(-c3ccncc3)nc2c1	inconclusive [inhibitor, partial curve]	–
COc1cc(C(=O)Nc2cccc3cccnc23)cc(OC)c1OC	inconclusive [inhibitor, full curve, poor fit]	–
COc1cc(-c2ccccc2)nc2ccccc12	active: 28.2 µM	–
COc1ccc(OC)c(C2=NOC(C(=O)NCc3ccco3)C2)c1 (stereo unspecified)	inconclusive [inhibitor, partial curve, poor fit]	–
Cc1ccc(-c2nc3ccccc3s2)cc1NC(=O)c1ccc2c(c1)OCO2	inconclusive [inhibitor, single point]	–
CSc1nc(C)cc(SC(C(C)=O)C(=O)Nc2ccccc2)n1 (stereo unspecified)	active: 25.1 µM	–
Cc1cc2cc(C(c3nnnn3CC3CCCO3)N3CCCc4ccccc43)c(=O)[nH]c2cc1C (stereo unspecified)	inconclusive [inhibitor, partial curve]	–
CCOC(=O)c1ccc2c(c1)C1C=CCC1C(C(=O)O)N2 (stereo unspecified)	active: 15.8 µM	–
Cc1cccc2nc(Cn3c(=O)n(CCC(=O)NCc4ccco4)c(=O)c4sccc43)cc(=O)n12	inconclusive [inhibitor, single point]	–
CCn1c2ccccc2c2cc(/C=N/NC(=O)c3ccccc3C)ccc21	inconclusive [inhibitor, single point]	–
Cc1cccc(OCCCc2c(C)n[nH]c2C)c1	–	inactive: -10.3%
O=C1c2ccccc2CC1Sc1nnc(-c2ccccn2)o1 (stereo unspecified)	inconclusive [inhibitor, single point]	–

SMILES	Potency	activity change, negative = inhibition
COc1ccccc1NC(=S)Nc1cccc2cnccc12	–	inactive: -16.8%
CCC(C)NS(=O)(=O)c1ccc(-c2csnn2)s1 (stereo unspecified)	inconclusive [inhibitor, partial curve, poor fit]	–
COc1cccc(C(=O)NCC2CCCO2)c1 (stereo unspecified)	active: 8.91 µM	–
COc1ccccc1N=Cc1c(O)c2ccccc2oc1=O	inconclusive [inhibitor, partial curve]	–
Cc1ccc(-c2cc(C(=O)NCCCn3ccnc3)c3ccccc3n2)s1	inconclusive [inhibitor, partial curve]	–
N#CCCn1c(=O)c(-c2cc(F)cc(F)c2)nc2cnc(OCc3ccccc3)nc21	inconclusive [inhibitor, partial curve]	–
CCOC(=O)N1CCN(C(=O)c2cnc(Nc3ccccc3OC)c3ccccc23)CC1	inconclusive [inhibitor, single point]	–
O=C(c1cc(-c2ccco2)nc2ccccc12)N1CCN(c2ccc(F)cc2)CC1	inconclusive [inhibitor, single point]	–
COc1ccc(-c2cc3nc(C)cc(N)n3n2)cc1	inconclusive [inhibitor, partial curve]	–
O=C1c2ccccc2C(O)(O)[C@@]1(O)[C@]1(O)C(=O)c2ccccc2C1(O)O	–	inactive: 0.689%
Cc1ccc(Nc2cc(C)nn2-c2nc(C)cc(C)n2)cc1	–	inactive: -3.99%
C=CCOc1c(OC)cc(/C=N/Nc2cccc(C(=O)O)c2)c(Br)c1Br	inconclusive [inhibitor, partial curve]	–
CC1CCCCN1S(=O)(=O)c1ccc2c(c1)CCN2C(=O)C1CCC1 (stereo unspecified)	inconclusive [inhibitor, single point]	–
CCOC(=O)c1[nH]c2ccc(OC)cc2c1NC(=O)CN1CCc2ccccc2C1	inconclusive [inhibitor, partial curve]	–
CCOc1ccc2[nH]c(=O)c(CN(CCCO)C(C)=O)cc2c1	inconclusive [inhibitor, partial curve]	–
CCO/C(=C/c1sc2ccc(OC)cc2[n+]1CCCS(=O)(=O)[O-])CC	–	inactive: -21.8%
Cc1cc(C)n2nc(SCC(=O)N(C)c3ccccc3)nc2n1	inconclusive [inhibitor, single point]	–
CCOc1ccc(-c2nnc(-c3ccc(OC)cc3)o2)cc1	–	inactive: -11.4%
COc1cccc(/C=N/Nc2ccc(S(=O)(=O)O)cc2)c1O	active: 31.6 µM	–
CCOC(=O)NN1C(=O)c2ccccc2NC1c1cccc(O)c1 (stereo unspecified)	inconclusive [inhibitor, partial curve]	–
CCN(CC)c1ccc(/C=C2/C(=O)c3ccc(C(=O)O)cc3C2=O)cc1	active: 11.2 µM	–
COc1ccc(C(=O)n2nc(-c3ccco3)nc2SC)cc1OC	inconclusive [inhibitor, partial curve]	–
CCOC(=O)c1cc2c3ccccc3n(CC)c2nc1N	inconclusive [inhibitor, partial curve]	–
